Drawing on PubChem BioAssay AID1346428 (National Center for Advancing Translational Sciences (NCATS), 2018), this text covers activation for 83 molecules.

Screen size: about 48,000 compounds; about 1,200 (2.5%) were called active. Inconclusive results (about 2%) are left out.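 How the source made its calls: active means activation of at least 60% and not above a set upper limit (about 1 call in 100 departs from these limits); inconclusive means activation of 40% to 60%, or above that upper limit; inactive means activation under 40%.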 This is one part of the list.

For this test, the target named is Probable G-protein coupled receptor 32 (Homo sapiens) (UniProt O75388). Put plainly: qHTS for Agonists of Human Resolvin D1 Receptor DRV1. Further: 0% is about no effect. The settings on record: CHO-K1 GPR32 beta-arrestin PathHunter luminescence, 90 min; at 76.9 µM; stronger effect = higher value; zero percent set by DMSO-only wells. In outline: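 GPR32 activation in stably transfected CHO-K1 cells, detected as beta-arrestin recruitment by enzyme-fragment complementation. Compound exposure: 90 min, 37 °C.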
UniProt O75388, sequence (O75388 whole entry, looked up, the tested form may be a part): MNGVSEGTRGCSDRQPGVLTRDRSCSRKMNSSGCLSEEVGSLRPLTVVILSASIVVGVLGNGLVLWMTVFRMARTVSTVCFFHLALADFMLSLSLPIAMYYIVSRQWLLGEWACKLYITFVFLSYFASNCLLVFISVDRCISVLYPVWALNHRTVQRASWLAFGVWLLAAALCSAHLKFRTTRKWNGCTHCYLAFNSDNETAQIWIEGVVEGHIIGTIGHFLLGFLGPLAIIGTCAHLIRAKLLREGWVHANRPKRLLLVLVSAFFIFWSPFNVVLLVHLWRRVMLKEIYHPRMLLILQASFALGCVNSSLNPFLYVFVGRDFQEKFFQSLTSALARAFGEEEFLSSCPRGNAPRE
A general note: qHTS replaces the single test concentration by a dilution series.
Take `O=S(=O)(c1ccc(Cl)cc1)c1nc(-c2ccccc2Br)oc1N1CCOCC1`: the activation was inactive: -12.3%. On to `Cc1ccc(CCNC(=O)c2nnc(Cc3cccc(F)c3)o2)cc1`, for which the activation is inactive: 14.5%.

`CCCCN(CC)CCCNC(=O)c1cn(CC(C)C)c(=O)c2c1c1ccccc1n2C`: the activation is inactive: 0.188%. For `Cn1c(=O)c2c(nc(NCCc3ccccc3)n2Cc2cccc(Br)c2)n(C)c1=O`, the activation is inactive: 40.1%. For `COc1ccc2c(c1)CCc1c(C(=O)Nc3c(C)nn(Cc4ccccc4Cl)c3C)noc1-2`, the activation is inactive: 0.53%. Regarding `O=c1n(Cc2ccc(F)cc2Cl)c2ccccc2c2nc(-c3ccccc3)nn12`, the activation is inactive: -0.429%. For `COc1ccc(S(=O)(=O)NCC(c2cccs2)S(=O)(=O)c2ccc(C)cc2)cc1F` (stereo not drawn), the activation is inactive: -17.5%. Consider `Cc1[nH]c2ccc(F)cc2c1CCNC(=O)c1cc2cc(Cl)ccc2oc1=O`, for which the activation was inactive: 31.5%. The value for `CC(C)Oc1ccc(C(=O)Nc2ccc3oc(-c4ccncc4)nc3c2)cc1` was inactive: -2.03%. With `CC1Cc2ccccc2N1S(=O)(=O)c1nnc(NC(=O)c2ccccc2Br)s1` (stereo not drawn), the activation is inactive: 1.75%. In the case of `COc1ccc(-c2cn3nc(N4CCCC(C(=O)Nc5ccc(Cl)cc5C)C4)sc3n2)cc1` (stereo not drawn) it was inactive: -7.1%; in that of `COc1cc(NC(=O)C(NC(=O)C2CCC(C)CC2)C(C)C)cc(OC)c1OC` (stereo not drawn), inactive: -2.44%; in that of `Cc1ccc(CNC(=O)c2c[nH]c3ccc(S(=O)(=O)Nc4ccc(C(C)C)cc4)cc3c2=O)cc1`, inactive: 6.61%.

In the case of `COCCn1c(CNC(=O)c2cc([N+](=O)[O-])ccc2Cl)nc2cccnc21`, the activation was inactive: 0.933%. The value for `COc1ccc(Cl)cc1NS(=O)(=O)c1c(C)nc2scc(C)n2c1=O` was inactive: 0.932%; that for `Cc1ccccc1-n1c(=O)c2ccccc2n(Cc2ccc(F)cc2)c1=O` was inactive: -4.69%.

As to `CCOC(=O)c1cnc2c(Cl)c(Cl)ccc2c1Nc1ccc(N(C)C)cc1`, the activation is inactive: -1.03%.

As to `COC(=O)c1sc2cccc(F)c2c1S(=O)(=O)NCc1ccc(F)cc1`, the activation is inactive: -3.69%.

With `COc1ccc(C2CC(=O)N(Cc3cccc(C)c3)c3c2c(C)nn3-c2nc(C)cc(C)n2)c(OC)c1` (stereo not drawn), the activation is inactive: -5.73%. As to `O=C(Nc1ccc(F)cc1)c1ncn(-c2ccccc2)n1`, the activation is inactive: 1.86%. In the case of `COc1ccc(-n2c(=O)c3c4c(sc3n(Cc3c(F)cccc3Cl)c2=O)CN(C(C)=O)CC4)cc1OC` it was inactive: -11.2%; in that of `Cc1ccc(-c2noc(CN(C(=O)c3ccc(C(C)(C)C)cc3)C(C)C)n2)cc1`, inactive: 21.8%; in that of `O=S(=O)(c1ccccc1)n1nc(-c2ccc(Cl)cc2)nc1NCc1ccc(F)cc1`, active: 71.6%. In the case of `COc1cccc(NC(=O)Cn2c(=O)c3cccn3c3ccc(F)cc32)c1` it was inactive: -11.7%. With `CCCc1cc(C(N)=S)ccn1`, the activation is inactive: -66.2%. Take `CCOC(=O)c1ccccc1NC(=O)CN(c1cc(C(F)(F)F)ccc1Cl)S(C)(=O)=O`: the activation is inactive: -10.4%. In the case of `O=C(Cn1ccc2cc(S(=O)(=O)N3CCCCCC3)ccc21)NCCc1ccccc1Cl` it was inactive: -10.1%.

`Cc1ccc(CCNC(=O)CCS(=O)(=O)c2ccc3c(c2)oc(=O)n3C)cc1`: the activation was inactive: 30.7%.

In the case of `COc1cccc(N2CCN(S(=O)(=O)c3ccc(-c4cc(C(F)(F)F)on4)s3)CC2)c1`, the activation is inactive: 5.53%. In the case of `CCCCSCCCNC(=O)c1cn(CC)c2ccc(S(=O)(=O)N(C)C3CCCCC3)cc2c1=O` it was inactive: -17.2%. In the case of `COc1cccc(-c2nc(SCC(=O)NCc3ccccc3)c3c(=O)n(C)c(=O)n(C)c3n2)c1` it was inactive: -8.23%; in that of `CCOc1ccccc1NC(=O)Nc1ccccc1OCc1cc(=O)n2ccccc2n1`, inactive: 21.5%. In the case of `COc1cc(Cl)c(C)cc1NC(=O)Cn1cnc2sc(C)c(S(=O)(=O)N3CCCCC3)c2c1=O` it was inactive: -8.53%. Consider `CCOC(=O)c1scc(-c2ccc(C)cc2)c1S(=O)(=O)Nc1cc(C)ccc1C`, for which the activation is inactive: -14.8%.

On to `CN(CC(=O)NCc1ccc(Cl)cc1)S(=O)(=O)c1ccc2c(c1)c(=O)n(C)c(=O)n2C`, for which the activation was inactive: -2.7%.

In the case of `Cc1ccc(CCNC(=O)c2ccc(CS(=O)(=O)Cc3ccc(Cl)cc3)o2)cc1`, the activation was inactive: 7.47%.

With `CCOc1ccccc1NC(=O)Cn1c(=O)n(-c2ccc(C)c(C)c2)c(=O)c2c(C)c(C(=O)N(C)C)sc21`, the activation was inactive: -3.34%. On to `COc1cc(/C=C/C(=O)O[C@H]2CC[C@]34C[C@]35CC[C@]3(C)[C@@H]([C@H](C)CCC=C(C)C)CC[C@@]3(C)[C@@H]5CC[C@H]4C2(C)C)ccc1O`, for which the activation is inactive: 27.9%. The value for `O=C(NCc1ccc(Cl)cc1)C(=O)NCC(c1cccnc1)N1CCN(c2ccccc2)CC1` (stereo not drawn) was inactive: -2.43%.

For the molecule `CCS(=O)(=O)c1c(S(=O)(=O)CC)c2cc(C(C)(C)C)ccn2c1C(=O)c1ccc(F)cc1`, the activation is inactive: -4.34%. In the case of `Cc1cc2c(cc1C)NC(CC(=O)Nc1cccc(C)c1C)C(=O)N2` (stereo not drawn) it was inactive: -59.4%; in that of `COc1cccc(-c2nnc(SCC(=O)N3CCc4ccccc43)o2)c1`, inactive: 4.41%; in that of `CC(Nc1ncnc2c1cnn2-c1cccc(Cl)c1)c1ccccc1` (stereo not drawn), active: 91.4%.

On to `Cc1ccc(NC(=O)N(Cc2c[nH]c3ccccc23)C2CCCCCC2)cc1C`, for which the activation is inactive: -0.127%. In the case of `COc1ccc(CCNC(=O)Cc2c(C)c3ccc(O)c(C)c3oc2=O)cc1OC` it was inactive: 0.184%; in that of `O=c1n(Cc2ccc([N+](=O)[O-])cc2)c2ccccc2c2nc(-c3ccccc3)nn12`, inactive: -8.45%; in that of `Cc1cc(C)cc(-n2c(SCC(=O)Nc3ccccc3F)nc3c(oc4ccccc43)c2=O)c1`, inactive: 6.48%. In the case of `Cc1ccc(Cn2cnc3nc4c(cc3c2=O)CCCC4)cc1` it was inactive: -4.78%; in that of `CCOc1ccc(NC(=O)c2cccc3c(=O)c4c([nH]c23)CCCC4)cc1`, inactive: 8.06%; in that of `Cn1c(=O)n(C)c2cc(CNCc3ccc(F)cc3)ccc21`, inactive: 2.13%. The value for `Cc1ccc(C(=O)N2CCc3cc(CNC(=O)c4ccccc4F)ccc32)cc1` was inactive: -9.6%. As for `Cc1c(NC(=O)Nc2ccccc2C(F)(F)F)c(=O)n(-c2ccccc2)n1C`, the activation was inactive: -0.0635%. The value for `CCOc1ccc(C2=C(C(C)=O)Sc3nnc(C)n3N2C(C)=O)cc1` was inactive: -77.9%. On to `COc1ccc(CCNC(=O)CCN2N=C(c3ccccc3)CCC2=O)cc1OC`, for which the activation is inactive: -6.74%. In the case of `O=C(CS(=O)(=O)c1ccc(Cl)cc1)Nc1nc2ccc(Br)cc2s1` it was inactive: 9.31%.

On to `CCc1ccc(NC(=O)C2(c3cccs3)CCOCC2)cc1`, for which the activation was inactive: -7.73%. On to `Cc1oc2ncn(CC(C)C)c(=O)c2c1C(=O)N1CCN(c2ccccc2F)CC1`, for which the activation was inactive: -10.2%.

Consider `Cc1cc(C)c(NC(=O)CN(c2ccccc2)S(=O)(=O)N(C)C)c(C)c1`, for which the activation is inactive: 2.8%. The value for `CSc1ccc(CCNC(=O)CN2C(=O)COc3ccc(S(=O)(=O)N4CCCC4)cc32)cc1` was inactive: 2.73%. In the case of `O=C(Nc1ccc2oc(-c3ccc4ccccc4c3)nc2c1)c1cccc(Cl)c1Cl` it was inactive: 16.5%; in that of `Cc1ccccc1NC(=O)c1cc2ccccc2o1`, inactive: 11.1%.

As for `CCOc1ccc(NC(=O)c2cnn3c2NC(c2ccccc2)=CC3c2cccc(OC)c2OC)cc1` (stereo not drawn), the activation is inactive: -40%. The value for `Clc1ccc(-c2nnn3c2nc(N2CCCCC2)c2ccccc23)cc1` was inactive: -3.6%; that for `CCN1c2ccccc2-c2nc(SCC(=O)Nc3cc(C)c(Cl)cc3OC)ncc2S1(=O)=O` was inactive: -19.4%; that for `Oc1c(C(c2cccc(Cl)c2)N2CCOCC2)sc2nc(-c3ccco3)nn12` (stereo not drawn) was inactive: 20.7%. `O=C(Nc1ccc(F)c(Cl)c1)C1CCN(c2ncccn2)CC1`: the activation is inactive: -16.4%. In the case of `COc1ccc(CCNC(=O)c2c3c(nc4ccccc24)C(=O)N(C2CCCCC2)C3)cc1OC` it was inactive: 2.89%; in that of `Cc1ccc(C)c(N2CCN(c3nc4ccccc4n4nnnc34)CC2)c1`, inactive: -8.3%. `O=C(COc1ccc(F)cc1)NCc1ccc2c(c1)CCN2C(=O)c1ccc(F)cc1`: the activation is inactive: -38.3%. The value for `Cc1cccc(OCC(=O)Nc2ccc(S(=O)(=O)N(Cc3ccccc3)c3ccccc3)cc2)c1` was inactive: 10.2%; that for `Cc1cc(-n2c(C)nc3ccccc3c2=O)ccc1NC(=O)c1cccc([N+](=O)[O-])c1C` was inactive: 14.5%. With `Cc1cc(Br)cc(C)c1OCC(=O)Nc1ccc(S(=O)(=O)Nc2ncccn2)cc1`, the activation was inactive: -1.07%.

With `COCCn1c(=O)[nH]c2cc(C(=O)N3CCN(c4ccc(F)cc4)CC3)ccc2c1=O`, the activation is inactive: 38.8%. Turning to `CCc1nn(CC(=O)NCC(C)c2ccccc2)c(=O)c2cc3c(OC)cccc3n12` (stereo not drawn), the activation is inactive: -6.18%. Turning to `COC(=O)c1ccccc1NC(=O)C1CCCN(C(=O)c2cnn(-c3ccc(F)cc3)c2-n2cccc2)C1` (stereo not drawn), the activation is inactive: 25.5%.

Regarding `Cc1oc(-c2ccccc2F)nc1Cn1c(SCc2cccc(Cl)c2)nc2ccncc21`, the activation was inactive: -19%. For `Cc1ccc(-n2ncc3c(N4CCN(Cc5ccccc5)CC4)ncnc32)cc1C`, the activation is active: 75.3%.

Regarding `N#C/C(=C\c1ccc(-c2ccc(Br)cc2)o1)C(=O)Nc1ccccc1O`, the activation is inactive: 12.1%. The value for `O=C(NCCc1csc(-c2ccc(C(F)(F)F)cc2)n1)c1ccccc1Cl` was inactive: -2.15%; that for `CCOCCc1nn2c(=O)cc(COC(=O)c3ccccc3Br)nc2s1` was inactive: -16.4%; that for `Cc1ccc(CNC(=O)C(=O)NCC(c2cccs2)S(=O)(=O)c2ccccc2)cc1` (stereo not drawn) was inactive: -5.71%. Take `CC(Cc1cccc(C(F)(F)F)c1)NCCOC(=O)c1ccccc1` (stereo not drawn): the activation is active: 63.4%. Regarding `CCCn1c(=N)c(C(=O)NCc2ccccc2)cc2c(=O)n3cccc(C)c3nc21`, the activation is inactive: -2.67%.
